Data published in paper PMC4336329 (PLoS ONE, 2015).
Out of some 310,000 compounds screened, about 14,000 (4.5%) showed an effect of 50% or more. The effect is printed as a negative number. The list shows a part of the results.

Target: human ether-à-go-go-related gene (hERG) potassium channel (human, UniProt Q12809)
Test: primary screen, population patch clamp on CHO cells stably expressing hERG
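Note: peak tail current of the secondary pulse compared with the same well before compound.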

Sequence of human ether-à-go-go-related gene (hERG) potassium channel (Q12809 whole entry, looked up): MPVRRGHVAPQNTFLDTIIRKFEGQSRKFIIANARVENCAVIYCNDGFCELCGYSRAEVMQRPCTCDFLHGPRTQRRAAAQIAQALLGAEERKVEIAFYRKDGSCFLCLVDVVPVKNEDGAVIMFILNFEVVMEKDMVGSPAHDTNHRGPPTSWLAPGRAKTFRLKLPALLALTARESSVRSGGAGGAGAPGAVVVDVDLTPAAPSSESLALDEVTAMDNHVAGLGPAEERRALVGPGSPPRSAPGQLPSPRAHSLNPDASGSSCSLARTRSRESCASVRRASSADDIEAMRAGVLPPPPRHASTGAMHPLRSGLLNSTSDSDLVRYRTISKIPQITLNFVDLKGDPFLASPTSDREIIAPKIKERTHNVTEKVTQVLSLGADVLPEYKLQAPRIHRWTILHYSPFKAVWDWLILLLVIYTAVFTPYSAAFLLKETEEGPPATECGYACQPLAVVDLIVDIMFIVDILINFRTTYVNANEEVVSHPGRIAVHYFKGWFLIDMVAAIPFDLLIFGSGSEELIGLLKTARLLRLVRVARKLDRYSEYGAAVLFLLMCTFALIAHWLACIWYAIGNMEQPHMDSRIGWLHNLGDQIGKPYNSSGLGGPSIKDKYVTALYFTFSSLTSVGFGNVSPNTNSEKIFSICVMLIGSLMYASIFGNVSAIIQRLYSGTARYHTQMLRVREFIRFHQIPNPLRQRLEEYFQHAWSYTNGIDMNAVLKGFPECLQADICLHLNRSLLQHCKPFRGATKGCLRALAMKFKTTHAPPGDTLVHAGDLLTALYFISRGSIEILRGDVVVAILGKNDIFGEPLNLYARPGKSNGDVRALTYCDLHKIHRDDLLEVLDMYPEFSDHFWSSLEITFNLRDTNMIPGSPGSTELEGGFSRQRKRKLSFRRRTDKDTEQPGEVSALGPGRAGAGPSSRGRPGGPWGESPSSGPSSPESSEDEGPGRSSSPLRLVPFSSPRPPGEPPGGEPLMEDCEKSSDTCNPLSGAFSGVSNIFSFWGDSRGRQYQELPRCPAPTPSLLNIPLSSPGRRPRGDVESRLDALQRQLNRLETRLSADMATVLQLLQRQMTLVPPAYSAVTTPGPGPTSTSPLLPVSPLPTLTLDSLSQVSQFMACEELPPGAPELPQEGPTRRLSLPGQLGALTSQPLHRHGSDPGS

SMILES	hERG current change (%, negative = inhibition) at 10uM
Fc1ccc2nc(N3CCCCC3)sc2c1	5.89%
COCCNC(=S)N/N=C(\C)c1cccc([N+](=O)[O-])c1	-70.4%
O=C(NCC(c1ccco1)N1CCc2ccccc2C1)c1cccc(F)c1 (centres unmarked)	-63.5%
COc1cc(C2C(C(=O)OCCC#N)=C(C)NC3=C2S(=O)(=O)c2ccccc23)cc(OC)c1OC (centres unmarked)	-15.2%
Cc1cc(-c2ccccc2)nc2cc(C(=O)NCCCn3ccnc3)nn12	-22.2%
COc1ccc(-c2nc(-c3ccccn3)nc(N3CCN(C)CC3)c2C#N)cc1	-28.7%
CCOC(=O)N1CCN(C(=S)NCCOC)CC1	13%
COc1cc(-c2nc3ccc4ccccc4c3c3c2CCC3)ccc1O	13.8%
COc1ccc(CCNCC(=O)Nc2ccc(OC(F)(F)F)cc2)cc1OC.Cl	-42.2%
O=C(CCCC(=O)N(CC(=O)NC1CCCC1)c1ccc(F)c(Cl)c1)Nc1ccccn1	-9.24%
Cc1ccc(S(=O)(=O)c2cccc(S(=O)(=O)N3CCOCC3)c2)cc1S(=O)(=O)N1CCOCC1	13.3%
O=C(COc1cccc(Cl)c1Cl)Nc1ccc2c(c1)CCC2	10.2%
COc1ccccc1CNS(=O)(=O)c1c(C)nc2sccn2c1=O	6.31%
Cc1cc2oc(=O)cc(CN3CCCCC3)c2cc1O	-1.42%
Cc1ccc(S(=O)(=O)N[C@@H](Cc2ccccc2)C(=O)N2CCC(C(=O)N[C@H](C(=O)O)C(C)O)CC2)cc1 (some centres unmarked)	16.5%
CC(=O)Oc1ccc(C(=O)Nc2cc(C)on2)cc1	16.6%
CCN1CCN(S(=O)(=O)c2ccc(S(=O)(=O)NC3CC3)cc2)CC1	7.03%
O=C(CSc1cccc(C(F)(F)F)c1)Nc1ccc(Cl)cc1Cl	8.02%
COc1cccc(C2NC(=O)NC(C)=C2C(=O)OCC2CCCCC2)c1 (centres unmarked)	18.1%
O=C(N/N=C/c1ccccc1O)c1cccc2ccccc12	18.2%
COc1ccc(CCN(C)C(=O)CNC(=O)c2ccc3c(c2)OCO3)cc1OC	-5.07%
Cc1cc(C)cc(NC(=O)C(OC(=O)c2cc[n+]([O-])cc2)c2ccccc2)c1 (centres unmarked)	-74%

SMILES	hERG current change (%, negative = inhibition) at 10uM
CCc1ccc(C2C(C#N)=C(N)SC(N)=C2C#N)s1	20.9%
COc1ccccc1NC(=O)c1ccc(NC(=O)c2ccco2)cc1	-0.0528%
COc1ccc2nc(NC(=O)CC3Oc4ccccc4NC3=O)sc2c1 (centres unmarked)	20.9%
O=C1CCc2cc(S(=O)(=O)Nc3ccc(C(F)(F)F)cc3)cc3c2N1CC3	-2.69%
Cn1c(=O)c2c(nc(Br)n2CCSc2nc3ccccc3o2)n(C)c1=O	-7.12%
N#Cc1cccc(C(=O)OCC(=O)NC(=O)NC2CCCCC2)c1	-4.44%
COc1ccccc1OCCCC(=O)Nc1ccc([N+](=O)[O-])cc1Br	-7.68%
COCCNC(=O)c1c(CS(=O)(=O)c2ccccc2)noc1C(=O)NCc1ccccc1	8.05%
Cc1nc(N2CCOCC2)nc(OCCN(C)C)c1[N+](=O)[O-]	3.34%
CCN(C(=O)CSc1nnc(C2CC2)n1-c1ccccc1)C1CCS(=O)(=O)C1 (centres unmarked)	0.453%
Cn1c(=O)cc(OCC(=O)N2CCCc3ccccc32)c2ccccc21	-3.03%
COc1ccccc1C(=O)Nc1ccc(NC(=O)C2CCCCC2)nc1	11.8%
CC(C)(C)c1nnc2sc(SCC(=O)c3ccc(Cl)cc3)nn2c1=O	14.5%
NC(=O)CC(NC(=O)Cc1cccc2ccccc12)c1ccc(N2CCC(N3CCCCC3)CC2)c([N+](=O)[O-])c1 (centres unmarked)	4.24%
CCCCc1c(O)c2cccc3c2n(c1=O)CCC3	17%
Cc1nnsc1NC(=O)OCC(C)(C)C	4.6%
CC1(C)C2CC=C(/C=N/NC(=O)c3ccccc3O)C1C2 (centres unmarked)	19%
O=C(NCc1ccccc1)NC1(C(=O)N2CCN(c3ccccc3)CC2)CCCCC1	-18.4%
O=C(O)c1c2c(nc3ccccc13)/C(=C/c1ccccc1[N+](=O)[O-])CCC2	1.89%
O=C(c1ccc(S(=O)(=O)N2CCOCC2)cc1)N1CCN(C2=NS(=O)(=O)c3ccccc32)CC1	3.52%
Cc1ccc(S(=O)(=O)Nc2ccc(N(C)S(=O)(=O)c3ccc(C)cc3)cc2)cc1	-5.95%
CCOc1ccc(NC(=S)N2CCC(N(C)CC3CCCO3)CC2)cc1 (centres unmarked)	-25.6%

SMILES	hERG current change (%, negative = inhibition) at 10uM
CCN1CCN(CCCNC(=O)c2cc3c(=O)oc4ccc(C)cc4c3s2)CC1	-19.1%
N#Cc1c2n(c3c(=O)n(CC(=O)c4ccc([N+](=O)[O-])cc4)cnc13)CCCCC2	-8.48%
Cc1[nH]c2ccccc2c1SCC(=O)N1CCCc2ccccc21	1.07%
O=C(Nc1cccc(S(=O)(=O)Nc2ccccc2Cl)c1)c1ccc(Cl)nc1	-8.9%
Nc1nc(OCc2ccccc2)c2[nH]cnc2n1	-0.131%
C=CCc1ccccc1OCC(O)CN1CCN(c2ccc(C)cc2)CC1 (centres unmarked)	-44.7%
CCOC(=O)c1cc2ccc3ccccc3c2s1.O=C(O)CCCCC(=O)O	13.1%
COc1ccccc1C(=O)NCCC(=O)N1CCCC(C(F)(F)F)C1 (centres unmarked)	22.5%
Cc1nn(Cc2ccccc2)c(C)c1C(=O)OCC(=O)Nc1cccc(S(N)(=O)=O)c1	-0.587%
COc1ccccc1NS(=O)(=O)c1cc(NC(=O)CC(C)(C)C)ccc1N1CCOCC1	-16.3%
COc1ccc(-c2cn(CCC(=O)O)c(-c3ccc(Cl)nc3)n2)cc1	9.6%
CN1CCCN(c2ccc([N+](=O)[O-])nc2)CC1	2.45%
C=CCNC(=S)Nc1c(C(=O)OC)[nH]c2cc(OC)ccc12	17.4%
O=C(O)c1ccc2c(c1)C(=O)N(c1nccs1)C2=O	-1.09%
Cn1c(-c2ccc3c(c2)OCO3)cnc1N	-16.5%
O=C(CC1CC2CCC1C2)NCCc1ccc(Cl)cc1 (centres unmarked)	-27%
OCCN(CC#CC(O)(c1ccccc1)c1ccccc1)CCO	5.56%
Nc1nc(NCc2ccccc2)nc(Nc2ccc(F)cc2)c1[N+](=O)[O-]	7.02%
CC(=O)Nc1sc(C)c(C)c1C(=O)OC(C)C	8.77%
CCOC(=O)N1CCC(NC(=O)Cn2cc3c(n2)CCCC3)CC1	0.774%
CC(C)OC(=O)c1c(N)n(Cc2ccco2)c2nc3ccccc3nc12	-31.4%
O=C(NCCS(=O)(=O)NCc1ccccc1Cl)c1ccc2c(c1)OCO2	-16.2%

SMILES	hERG current change (%, negative = inhibition) at 10uM
COc1ccc(F)cc1S(=O)(=O)N1CCCCC1	-13.8%
S=C(NC1CCCCCC1)NC1CCCC1	-1.12%
CCOC(=O)[C@@H]1[C@H]2COc3cc(OC)ccc3[C@@H]2N2C(=O)N(c3cccc(F)c3)C(=O)[C@@]12C	3.88%
CCOc1ccc(NC(=O)C[n+]2ccc(N(C)C)cc2)cc1.[Cl-]	11.8%
CCCNS(=O)(=O)c1ccc(C(=O)NCC2CCCO2)cc1 (centres unmarked)	-6.36%
COc1cccc(NC(=O)CN(C)C(=O)c2cccc(S(=O)(=O)Nc3ccc(C)cc3)c2)c1	-11.7%
COC(=O)c1ccc(Nc2ncnc3sccc23)cc1	10.1%
COC(=O)C(C)Sc1nc2c(c(=O)n1-c1ccccc1)SCC2 (centres unmarked)	-6.49%
COc1ccc(NS(=O)(=O)c2cccc(C(=O)NNC(=O)c3cccc(NC(C)=O)c3)c2)cc1	6.41%
Cc1nn(-c2ccccc2)c(N)c1N=Nc1cccnc1	-6.73%
COc1ccc(C2c3[nH]c4ccccc4c3C[C@H]3C(=O)N(C4CCN(Cc5ccccc5)CC4)CC(=O)N23)c(OC)c1 (some centres unmarked)	-25%
COc1ccc(OCCN2C(=O)c3ccccc3C2=O)cc1	4.25%
Cc1nn(-c2cccc(Cl)c2)c2c1C(c1ccncc1)C(C#N)=C(N)O2 (centres unmarked)	6.79%
CC1=NN(C(=O)CSCc2ccccc2)C(O)(c2ccc(F)cc2)C1 (centres unmarked)	-13.1%
Cc1nc(N2CCN(c3ccccc3)CC2)nc2c1C(=O)CC(c1ccccc1)C2 (centres unmarked)	10.7%
CC1CCC(NCCNC(=O)c2ccco2)CC1 (centres unmarked)	11.8%
CC(=O)c1c(C)[nH]c(C(=O)OCC(=O)Nc2cc(C)on2)c1C	9.91%
CCN(Cc1ccccc1)C(=O)c1c[nH]c2ccc(S(=O)(=O)N(C)CCC#N)cc2c1=O	-0.855%
COc1ccc(NC(=O)Nc2ncn(Cc3cccc(C(F)(F)F)c3)n2)cc1OC	-32.5%
CC[N+](C)(CC)CCCCOc1ccc2c(c1)C(=O)c1cc(OCCCC[N+](C)(CC)CC)ccc1-2.[I-]	12.9%
